Experimental findings from the BET-seq Pho4 binding data (Le et al. 2018) are described below.

Some of the results follow. These are noisy estimates, calculated here from bound and input reads.

This test deals with T1, Pho4 (S. cerevisiae) (UniProt P07270).
T1 sequence: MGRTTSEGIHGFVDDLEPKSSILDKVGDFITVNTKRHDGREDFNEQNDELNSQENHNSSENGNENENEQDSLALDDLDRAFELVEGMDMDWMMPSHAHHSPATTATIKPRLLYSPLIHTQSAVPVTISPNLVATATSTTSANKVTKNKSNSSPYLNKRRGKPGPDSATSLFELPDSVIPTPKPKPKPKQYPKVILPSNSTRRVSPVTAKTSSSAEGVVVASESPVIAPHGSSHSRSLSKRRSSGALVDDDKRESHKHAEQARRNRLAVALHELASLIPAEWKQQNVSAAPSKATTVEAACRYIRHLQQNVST
Briefly: relative binding free energy (BET-seq); higher = weaker binding. Conditions: reference: library average.
On to AGGCACACGTGGTGGA, for which the “relative binding free energy” value is -0.02 kcal/mol.
As to AGGATCACGTGCCGGG, the “relative binding free energy” value is 0.15 kcal/mol.
CTGATCACGTGGTTTT: the “relative binding free energy” value was found to be 0.15 kcal/mol.
Turning to TCCGTCACGTGTTAGG, the “relative binding free energy” value worked out at 0.19 kcal/mol.
As to ACGGGCACGTGGGTAT, the “relative binding free energy” value was -0.24 kcal/mol.
Turning to TCGGTCACGTGGGGTC, the “relative binding free energy” value was determined as 0.07 kcal/mol.
As to GGCGTCACGTGCGGGG, the “relative binding free energy” value was 0.01 kcal/mol.
In the case of TTGCACACGTGAGTTG, the “relative binding free energy” value was found to be 0.24 kcal/mol.
On to AGCCACACGTGGGTGG, for which the “relative binding free energy” value was found to be 0.02 kcal/mol.
Turning to TGGGTCACGTGGCAGG, the “relative binding free energy” value is 0.01 kcal/mol.
Turning to TGTGACACGTGCCGTT, the “relative binding free energy” value is -0.04 kcal/mol.
Next, TATACCACGTGGTTGG: -0.21 kcal/mol; GATTGCACGTGTTCGT: 0.15 kcal/mol; GATAACACGTGGAGTT: 0.07 kcal/mol.
For the sequence TGAGTCACGTGAATAT, the “relative binding free energy” value stood at 0.22 kcal/mol.
For the sequence GTTTCCACGTGTTGTA, the “relative binding free energy” value stood at 0.07 kcal/mol.
With TTGGGCACGTGGGCAA, the “relative binding free energy” value was -0.17 kcal/mol.
Take GTTGTCACGTGTATCT: the “relative binding free energy” value came out at 0.15 kcal/mol.
For CTTTTCACGTGGTATT, the “relative binding free energy” value stood at 0.25 kcal/mol.
On to TGATTCACGTGATATT, for which the “relative binding free energy” value is 0.35 kcal/mol.
CGCGTCACGTGGGCGG: the “relative binding free energy” value was -0.09 kcal/mol.
As to GTATTCACGTGATTAG, the “relative binding free energy” value was 0.29 kcal/mol.
Turning to ACGTTCACGTGCTGTT, the “relative binding free energy” value turned out to be 0.19 kcal/mol.
Next, GTGTACACGTGTTGGG: 0.11 kcal/mol; TGGTTCACGTGTAAAT: 0.49 kcal/mol; AGCGGCACGTGGAGCG: -0.16 kcal/mol.
In the case of TCTGGCACGTGGTATT, the “relative binding free energy” value was -0.13 kcal/mol.
Consider ATGGGCACGTGGCGCA, for which the “relative binding free energy” value is -0.3 kcal/mol.
For the sequence TGGAGCACGTGGGTGG, the “relative binding free energy” value was -0.18 kcal/mol.
In the case of TGATTCACGTGGGAGT, the “relative binding free energy” value is 0.3 kcal/mol.
Take TTTAACACGTGAGTTT: the “relative binding free energy” value stood at 0.32 kcal/mol.
For the sequence GGGCTCACGTGTTGAT, the “relative binding free energy” value stood at 0.23 kcal/mol.
As to TTTCACACGTGGGGGG, the “relative binding free energy” value is 0.14 kcal/mol.
ATGTGCACGTGGAGAG: the “relative binding free energy” value is -0.09 kcal/mol.
Next, CTGGTCACGTGTGGTT: 0.17 kcal/mol.
Regarding CGGTGCACGTGCGGAG, the “relative binding free energy” value was -0.16 kcal/mol.
On to TATTTCACGTGTGCGT, for which the “relative binding free energy” value amounted to 0.43 kcal/mol.
For TGGCTCACGTGATTGC, the “relative binding free energy” value came to 0.39 kcal/mol.
As to TGTCGCACGTGATAGG, the “relative binding free energy” value is 0.15 kcal/mol.
For AGGTTCACGTGTTAGA, the “relative binding free energy” value turned out to be 0.32 kcal/mol.
Consider TAGGACACGTGGATTG, for which the “relative binding free energy” value was -0.09 kcal/mol.
For the sequence ATTATCACGTGGCGTA, the “relative binding free energy” value is 0.2 kcal/mol.
Next, TTAGGCACGTGAATTA: 0.17 kcal/mol.
As for GCATTCACGTGGGTGC, the “relative binding free energy” value was determined as 0.14 kcal/mol.
Consider GTGGACACGTGGGCAG, for which the “relative binding free energy” value is -0.14 kcal/mol.
Regarding GTTAGCACGTGGCTCG, the “relative binding free energy” value is -0.06 kcal/mol.
Next, CGTAACACGTGTTGAT: 0.02 kcal/mol.
On to GGTTTCACGTGGCGCG, for which the “relative binding free energy” value came to 0.32 kcal/mol.
With TCTTTCACGTGGCGGG the figure was 0.3 kcal/mol.
TTTGGCACGTGACTTT: the “relative binding free energy” value is 0.02 kcal/mol.
On to TTTCGCACGTGGGAAG, for which the “relative binding free energy” value is -0.02 kcal/mol.
TGGCACACGTGTGTAG: the “relative binding free energy” value is -0.03 kcal/mol.
With TTGAGCACGTGGCTGG the figure was -0.08 kcal/mol.
For TTAGTCACGTGTCTGT, the “relative binding free energy” value is -0.02 kcal/mol.
Consider GGTATCACGTGGTGTT, for which the “relative binding free energy” value is 0.17 kcal/mol.
For GTATGCACGTGTGAGC, the “relative binding free energy” value is 0.12 kcal/mol.
Turning to GGCAGCACGTGACGGG, the “relative binding free energy” value was found to be 0.07 kcal/mol.
On to TTGATCACGTGTAGAT, for which the “relative binding free energy” value was 0.24 kcal/mol.
Regarding AAAAGCACGTGAGTTT, the “relative binding free energy” value amounted to 0.16 kcal/mol.
As to TTGTACACGTGGTTGC, the “relative binding free energy” value was -0.14 kcal/mol.
In the case of GTAGGCACGTGGGGAT, the “relative binding free energy” value was -0.13 kcal/mol.
As to AGGTCCACGTGATTTG, the “relative binding free energy” value came to 0.2 kcal/mol.
With ATTTTCACGTGCGAAG, the “relative binding free energy” value was found to be 0.24 kcal/mol.
Regarding TTGACCACGTGACGGG, the “relative binding free energy” value worked out at 0.23 kcal/mol.
With GTGTACACGTGATCGG the figure was 0.23 kcal/mol; with GGGGTCACGTGTCAGA, 0.21 kcal/mol.
With TGTCACACGTGAAGGT the figure was 0.27 kcal/mol.
For GAGAGCACGTGGGTAT, the “relative binding free energy” value is -0.18 kcal/mol.
Take GTATACACGTGCGGTA: the “relative binding free energy” value is 0.1 kcal/mol.
TACATCACGTGTAGGA: the “relative binding free energy” value stood at 0.27 kcal/mol.
For TGTCACACGTGGTTGG, the “relative binding free energy” value was 0.01 kcal/mol.
With GTCTGCACGTGTGGTA, the “relative binding free energy” value was 0.1 kcal/mol.
Take TATTGCACGTGCTGTG: the “relative binding free energy” value is -0.1 kcal/mol.
As for ACAGGCACGTGGGGGC, the “relative binding free energy” value is -0.31 kcal/mol.
Consider ACAAGCACGTGGAGGG, for which the “relative binding free energy” value is -0.15 kcal/mol.
In the case of GTCTGCACGTGTAAAT, the “relative binding free energy” value is 0.2 kcal/mol.
With GTTGGCACGTGGGTTT the figure was -0.15 kcal/mol; with TTGGTCACGTGTAGCC, 0.09 kcal/mol.
GTTTTCACGTGTAAAT: the “relative binding free energy” value worked out at 0.36 kcal/mol.
Take TTGATCACGTGAAATT: the “relative binding free energy” value turned out to be 0.29 kcal/mol.
Turning to TGTGCCACGTGGTTAG, the “relative binding free energy” value was -0.15 kcal/mol.
In the case of GATGTCACGTGTAGCG, the “relative binding free energy” value was determined as 0.2 kcal/mol.
With GCGGACACGTGGTTGT the figure was 0.09 kcal/mol; with GCATTCACGTGATGGT, 0.35 kcal/mol.
As for CTATGCACGTGGGCGT, the “relative binding free energy” value was -0.22 kcal/mol.
As for TATAGCACGTGCGAGT, the “relative binding free energy” value is -0.11 kcal/mol.
As for TGGGGCACGTGGTCTA, the “relative binding free energy” value was -0.13 kcal/mol.
With GGGATCACGTGCGTGA the figure was 0.02 kcal/mol; with GTTGTCACGTGGGCCG, 0.02 kcal/mol; with GTTGGCACGTGGATTG, -0.01 kcal/mol.
As for GGTTGCACGTGATACG, the “relative binding free energy” value was 0.16 kcal/mol.
For the sequence ATTATCACGTGGACTT, the “relative binding free energy” value came out at 0.24 kcal/mol.
As to TTTAACACGTGATCTG, the “relative binding free energy” value was 0.11 kcal/mol.
With ATTTGCACGTGTTCTT the figure was 0.03 kcal/mol.
For GTTGACACGTGGCGAT, the “relative binding free energy” value was -0.02 kcal/mol.
With GTGTTCACGTGGGCGT the figure was 0.22 kcal/mol.
Consider ATGTTCACGTGAATGT, for which the “relative binding free energy” value worked out at 0.37 kcal/mol.
On to ACATGCACGTGGGTTT, for which the “relative binding free energy” value was -0.21 kcal/mol.
With TATGTCACGTGACAAT, the “relative binding free energy” value was 0.46 kcal/mol.
ATGTTCACGTGGAGCA: the “relative binding free energy” value came to 0.31 kcal/mol.
As for GTCTTCACGTGGGGTA, the “relative binding free energy” value is 0.15 kcal/mol.
Turning to TTTGCCACGTGTTGCG, the “relative binding free energy” value was -0.04 kcal/mol.
Next, GTTTACACGTGCTGGC: 0.3 kcal/mol; TGGGTCACGTGAGGTG: 0.36 kcal/mol; GAACTCACGTGGGATG: 0.25 kcal/mol.
Turning to CGTCTCACGTGGAGGT, the “relative binding free energy” value was determined as 0.17 kcal/mol.
As for TCATACACGTGTTAGG, the “relative binding free energy” value stood at 0 kcal/mol.
As to ATGATCACGTGGAAGG, the “relative binding free energy” value was 0.19 kcal/mol.
On to AATTCCACGTGTGTGG, for which the “relative binding free energy” value was found to be 0.07 kcal/mol.
As to TGAGACACGTGTTGTA, the “relative binding free energy” value was -0.02 kcal/mol.
In the case of TAATTCACGTGGAGGC, the “relative binding free energy” value amounted to 0.19 kcal/mol.
As for AAAATCACGTGTTTTG, the “relative binding free energy” value worked out at 0.19 kcal/mol.
Take CGTGGCACGTGGGCTA: the “relative binding free energy” value is -0.24 kcal/mol.
Take GGGGGCACGTGTGGCG: the “relative binding free energy” value was -0.05 kcal/mol.
Next, TAGAACACGTGAGGTA: 0.33 kcal/mol.
